Measured values reported in patent publication US9023857B2, “Substituted 6-(2-aminobenzylamino)purine derivatives, their use as medicaments and preparations containing these compounds” (Univerzita Palackeho V Olomouci, priority 2009, dated 2015).

Legend:
[1] = biological target: CDK1/cyclin B (Homo sapiens, UniProt P06493); assay: CDK inhibition assay, CDK1/cyclin B
[2] = biological target: CDK2/cyclin E (Homo sapiens, UniProt P24941); assay: CDK inhibition assay, CDK2/cyclin E
[3] = biological target: CDK9/cyclin T (Homo sapiens, UniProt P50750); assay: CDK inhibition assay, CDK9/cyclin T
[4] = In vitro cytotoxic activity (Calcein AM, 72 hours), BJ; details: human, BJ normal fibroblasts
[5] = tested on: human T-lymphoblastoid leukaemic cell line CEM; assay: In vitro cytotoxic activity (Calcein AM, 72 hours), CEM; details: read-out: Cytotoxicity IC50 CEM
[6] = tested on: human osteogenic sarcoma HOS; assay: In vitro cytotoxic activity (Calcein AM, 72 hours), HOS; details: read-out: Cytotoxicity IC50 HOS
[7] = tested on: breast carcinoma MCF7; assay: In vitro cytotoxic activity (Calcein AM, 72 hours), MCF7; details: Homo sapiens, MCF7, 72 h, read-out: Cytotoxicity IC50 MCF7
[8] = tested on: cervical carcinoma cells HELA; assay: In vitro cytotoxic activity (Calcein AM, 72 hours), HELA; details: Homo sapiens, read-out: Cytotoxicity IC50 HeLa
[9] = tested on: promyelocytic leukemia HL 60; assay: In vitro cytotoxic activity (Calcein AM, 72 hours), HL 60; details: Homo sapiens, HL-60, 72 h, read-out: Cytotoxicity IC50 HL60
[10] = tested on: human malignant melanoma G 361; assay: In vitro cytotoxic activity (Calcein AM, 72 hours), G 361; details: G-361, 72 h, read-out: Cytotoxicity IC50 G361
[11] = tested on: human erythroleukaemia K562; assay: In vitro cytotoxic activity (Calcein AM, 72 hours), K562; details: K562, 72 h, read-out: Cytotoxicity IC50 K-562
[12] = tested on: p53-responsive reporter pRGCΔfoslacZ in human melanoma cell line Arn8; assay: p53-dependent transcriptional activity, β-galactosidase reporter in Arn8 cells; details: concentration inducing maximum of β-galactosidase activity (p53-responsive reporter)

SMILES | IC50 [1] [µM] | IC50 [2] [µM] | IC50 [3] [µM] | IC50 at 72 h [4] [µM] | IC50 [5] [µM] | IC50 [6] [µM] | IC50 [7] [µM] | IC50 [8] [µM] | IC50 [9] [µM] | IC50 [10] [µM] | IC50 [11] [µM] | Max. β-Gal. Activtity Conc. [12] [µM]
CC(C)n1cnc2c(NCc3ccccc3)nc(NC3CCC(O)CC3)nc21 (centres unmarked) [Compound A2144] | 0.6 | 0.8 | 0.6 | > 167 | 20 | 27 | 24 | 36 | 51 | 34 | – | –
CCC(CO)Nc1nc(NCc2ccccc2N)c2ncn(C3CCCCC3)c2n1 (centres unmarked) [Compound 198] | 0.4 | 0.1 | 0.03 | > 167 | 10 | 16 | 9 | 14 | 26 | 11 | 22 | 19
Cn1cnc2c(NCc3ccccc3)nc(NCCO)nc21 [OC] | – | – | – | – | 62 | – | – | 108 | 123 | 161 | – | 125
CC(C)n1cnc2c(NCc3ccccc3N)nc(NC3CCC(N)CC3)nc21 (centres unmarked) [Compound 102, N^6-(2-aminobenzyl)-N^2-(4-aminocyclohexyl)-9-isopropyl-9H-purine-2,6-diamine] | 0.1 | 0.08 | 0.004 | > 167 | 9 | 44 | 5.5 | 16 | 32 | 17 | 20 | 13
CCC(CO)Nc1nc(NCc2ccccc2N)c2ncn(C)c2n1 (centres unmarked) [Compound 5] | 0.09 | 0.03 | 0.004 | > 167 | 3 | 4 | 2 | 2 | 8 | 3 | 6 | 29
CCC(Nc1nc(NCc2ccccc2N)c2ncn(C(C)C)c2n1)C(C)O (centres unmarked) [Compound 114] | 0.05 | 0.01 | 0.0008 | > 167 | 17 | 19 | 11 | 17 | 34 | 15 | 28 | 3
CCC(CO)Nc1nc(NCc2cc(OC)ccc2N)c2ncn(C(C)C)c2n1 (centres unmarked) [Compound 182] | 0.2 | 0.1 | 0.001 | > 167 | 7.3 | 11 | 3.1 | 4.2 | 18 | 15 | 21 | 12
CC(C)n1cnc2c(NCc3ccccc3N)nc(NCCC(C)(C)O)nc21 [Compound 110] | – | – | – | – | – | – | – | – | – | – | – | 29
COc1cccc(CNc2nc(NCC(C)O)nc3c2ncn3C(C)C)c1N (centres unmarked) [Compound 166] | 0.4 | 0.1 | 0.002 | > 167 | 13 | 32 | 17 | 16 | 31 | 17 | 24 | 14
CCC(CO)Nc1nc(NCc2cc(F)ccc2N)c2ncn(C(C)C)c2n1 (centres unmarked) [Compound 128] | 0.07 | 0.008 | 0.0009 | > 167 | 6.2 | 10.8 | 2.9 | 3.2 | 8.5 | 12 | 10.2 | 4
Cn1cnc2c(NCc3ccccc3N)nc(NCC(C)(C)O)nc21 [Compound 8] | 0.04 | 0.02 | 0.001 | > 167 | 0.6 | 1.1 | 1.8 | 1.3 | 2.8 | 1.7 | 3.4 | 24
CCn1cnc2c(NCc3ccccc3N)nc(NC3CCC(N)CC3)nc21 (centres unmarked) [Compound 59] | 0.6 | 0.2 | 0.04 | > 167 | 10 | 17 | 14 | 20 | 29 | 15 | 31 | 33
CC(CNc1nc(NCc2ccccc2N)c2ncn(C)c2n1)C(C)(C)O (centres unmarked) [Compound 12] | – | – | – | – | – | – | – | – | – | – | – | 33
COc1cccc(CNc2nc(NC3CCC(N)CC3)nc3c2ncn3C)c1N (centres unmarked) [Compound 46] | 0.5 | 0.3 | 0.05 | > 167 | 13 | 19 | 13 | 18 | 28 | 13 | 27 | 32
